Sequences and labels used below:
B2: Proleukin (ligand)
chain: not shown

For the test “Proleukin”, the target named is B2. As to the kind of experiment: SPR (Biacore), CM4 chip, biotinylated receptor on neutravidin. The procedure:
(§1) Fc-IL-2 variant binding data was collected on a Biacore platform using a CM4 chip. Neutravidin was immobilized using standard amine coupling methods and used to capture biotinylated receptors. The source, preparation and immobilization of biotinylated IL-2Rα and IL-2Rβγ heterodimer was as described in Example 4. Proleukin was used as a comparator. Fc-IL-2 variants and Proleukin were injected at various concentrations over these surfaces. Kinetic data obtained from these injections was used to extract kₒₙ and koff to calculate KD (KD=Koff/kₒₙ).
On the technique in general: In SPR one partner is held on a chip, and binding of the other changes the refractive index at the surface.

For test [1], the target named is T1, IL-2Rα (recombinant IL-2 receptor α, R&D Systems Cat #: 223-2A/CF), biotinylated (human, UniProt P01589 22-213, limits assumed, biotinylated using sulfo-NHS-LC-LC-Biotin).
T1 construct: Bought reagent; also used here as the IL-2Rα partner of the in-silico analysis of PDB 2B5I (another construct); also called IL-2RA; CD25
T1 sequence (looked up): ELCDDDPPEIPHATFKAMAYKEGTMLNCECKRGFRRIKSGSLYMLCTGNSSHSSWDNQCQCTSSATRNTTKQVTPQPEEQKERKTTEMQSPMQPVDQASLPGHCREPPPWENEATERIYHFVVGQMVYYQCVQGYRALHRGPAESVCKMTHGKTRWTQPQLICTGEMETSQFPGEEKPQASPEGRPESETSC
The description is as above. The procedure: as §1

For test [2], the target named is T1, IL-2Rα (recombinant IL-2 receptor α, …). As to the kind of experiment: SPR (Biacore), C1 or CM5 chip, biotinylated receptor on neutravidin. The source says:
(§2) Data for binding of Fc-IL-2 variant fusion proteins to IL-2Rα, IL-2Rβ and IL-2Rβγ heterodimer were collected on a Biacore platform using either C1 or CM5 chips. Neutravidin was immobilized using standard amine coupling methods and used to capture biotinylated receptors. Commercially sourced IL-2Rα (R&D Systems Cat #: 223-2A/CF) and IL-2Rβ receptors (R&D Systems Cat #:224-2B-025/CF) were biotinylated using sulfo-NHS-LC-LC-Biotin, desalted, and then captured on the neutravidin surfaces. […] Distinct purification tags were appended to the C-terminus of each chain. A FLAG epitope tag ([…]; SEQ ID NO: 257) was added at the C-terminus of IL-2Rβ subunit, followed by C-terminal Hiss tag ([…]; SEQ ID NO: 258). An AviTag™ ([…]; SEQ ID NO: 259) motif on the IL-2Rγ subunit allowed for site-specific biotinylation of the heterodimer.
(§3) Fc IL 2 fusion protein variants, Fc protein, and Proleukin were injected at various concentrations over these surfaces. Kinetic data obtained from these injections was used to extract kₒₙ and koff to calculate KD (KD=koff/kₒₙ). Experiments were run at 25° C. in HBS-EP+ running buffer (10 mM HEPES, 150 mM NaCl, 3 mM EDTA, 0.05% Tween20, pH 7.4 with 0.1 mg/ml BSA). Data shown in Table 5 for Fc IL-2 fusion protein variants binding to the indicated IL-2R surfaces were derived from the global fitting of data obtained from 2-5 independent surfaces.

The target of test [3] is T2, IL-2Rβ (recombinant IL-2 receptor β, R&D Systems Cat #:224-2B-025/CF), biotinylated (UniProt P14784 27-239, limits assumed, biotinylated using sulfo-NHS-LC-LC-Biotin).
T2 construct: Bought reagent; also called IL-2RB; CD122
T2 sequence (looked up): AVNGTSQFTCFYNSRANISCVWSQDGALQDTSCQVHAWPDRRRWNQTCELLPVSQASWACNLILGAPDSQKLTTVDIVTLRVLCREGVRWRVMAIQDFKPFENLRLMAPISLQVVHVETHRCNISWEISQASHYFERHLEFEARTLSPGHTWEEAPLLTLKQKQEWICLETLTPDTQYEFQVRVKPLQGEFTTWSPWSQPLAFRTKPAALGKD
The description is as above.
Source text: as §2, §3

Test [4] concerns the target T3, human IL-2Rα on Treg cells (CD3+, CD4+, CD25hi, FoxP3+) of human PBMC (human, UniProt P01589 22-272).
T3 sequence (looked up): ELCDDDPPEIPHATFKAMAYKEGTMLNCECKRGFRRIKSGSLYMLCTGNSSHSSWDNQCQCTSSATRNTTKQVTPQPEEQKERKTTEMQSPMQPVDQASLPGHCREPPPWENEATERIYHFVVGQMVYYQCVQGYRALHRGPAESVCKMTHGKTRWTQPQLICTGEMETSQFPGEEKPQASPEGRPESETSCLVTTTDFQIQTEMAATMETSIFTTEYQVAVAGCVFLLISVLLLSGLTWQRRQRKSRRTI
The experiment in a line: cell-based or functional assay.

The target in test [5] is T4, trimeric murine IL-2 receptor (IL-2Rα, IL-2Rβ, and IL-2Rγ) on CTLL-2 cells (murine, UniProt P01590 22-268; P16297 27-539; P34902 23-369).
T4 sequence (looked up) 1: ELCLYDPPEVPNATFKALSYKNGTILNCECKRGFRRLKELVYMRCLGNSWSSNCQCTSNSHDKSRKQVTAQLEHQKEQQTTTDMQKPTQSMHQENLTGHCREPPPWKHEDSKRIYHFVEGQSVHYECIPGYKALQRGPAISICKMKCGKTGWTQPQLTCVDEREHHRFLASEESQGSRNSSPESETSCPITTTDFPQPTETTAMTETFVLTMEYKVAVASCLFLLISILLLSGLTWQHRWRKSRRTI
T4 sequence (looked up) 2: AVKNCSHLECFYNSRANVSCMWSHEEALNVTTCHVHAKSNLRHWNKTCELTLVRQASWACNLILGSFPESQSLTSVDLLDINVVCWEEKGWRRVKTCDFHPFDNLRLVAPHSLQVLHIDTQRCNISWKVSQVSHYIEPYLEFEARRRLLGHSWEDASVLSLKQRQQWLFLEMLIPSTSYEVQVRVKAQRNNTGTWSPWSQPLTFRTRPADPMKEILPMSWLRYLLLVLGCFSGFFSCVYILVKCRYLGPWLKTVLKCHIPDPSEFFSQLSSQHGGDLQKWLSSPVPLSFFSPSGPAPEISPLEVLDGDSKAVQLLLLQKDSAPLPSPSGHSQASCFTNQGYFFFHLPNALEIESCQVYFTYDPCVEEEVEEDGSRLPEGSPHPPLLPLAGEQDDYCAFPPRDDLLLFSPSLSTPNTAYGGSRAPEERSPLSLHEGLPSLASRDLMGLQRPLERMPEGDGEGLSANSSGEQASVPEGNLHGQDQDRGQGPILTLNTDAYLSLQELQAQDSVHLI
T4 sequence (looked up) 3: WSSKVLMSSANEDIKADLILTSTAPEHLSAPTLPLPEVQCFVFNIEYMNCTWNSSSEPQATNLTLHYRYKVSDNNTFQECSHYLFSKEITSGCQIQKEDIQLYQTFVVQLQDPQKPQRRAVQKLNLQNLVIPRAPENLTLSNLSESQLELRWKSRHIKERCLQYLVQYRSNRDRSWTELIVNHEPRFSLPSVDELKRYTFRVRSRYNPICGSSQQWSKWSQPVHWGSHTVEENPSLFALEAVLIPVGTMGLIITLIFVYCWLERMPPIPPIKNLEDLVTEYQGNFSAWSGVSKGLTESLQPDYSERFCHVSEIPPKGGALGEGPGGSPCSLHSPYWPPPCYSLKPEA
As to the kind of experiment: cell-based or functional assay.

B1: IL-2Rβγ heterodimer, custom biotinylated Fc fusion protein (human IL-2Rβ 27-240-Fc-FLAG / human IL-2Rγ 23-262-Fc-AviHis) (Fc fusion)
chain 1: AVNGTSQFTCFYNSRANISCVWSQDGALQDTSCQVHAWPDRRRWNQTCELLPVSQASWACNLILGAPDSQKLTTVDIVTLRVLCREGVRWRVMAIQDFKPFENLRLMAPISLQVVHVETHRCNISWEISQASHYFERHLEFEARTLSPGHTWEEAPLLTLKQKQEWICLETLTPDTQYEFQVRVKPLQGEFTTWSPWSQPLAFRTKPAALGKDTGAQ[sequence of human IgG1 Fc with changes omitted]GSGSDYKDDDDK
chain 2: LNTTILTPNGNEDTTADFFLTTMPTDSLSVSTLPLPEVQCFVFNVEYMNCTWNSSSEPQPTNLTLHYWYKNSDNDKVQKCSHYLFSEEITSGCQLQKKEIHLYQTFVVQLQDPREPRRQATQMLKLQNLVIPWAPENLTLHKLSESQLELNWNNRFLNHCLEHLVQYRTDWDHSWTEQSVDYRHKFSLPSVDGQKRYTFRVRSRFNPLCGSAQHWSEWSHPIHWGSNTSKENPFLFALEAGAQ[sequence of human IgG1 Fc with changes omitted]GSGSGLNDIFEAQKIEWHEHHHHHHHH
modifications: site-specific biotinylation at the AviTag
notes: Extracellular regions fused to IgG1 knob-in-hole Fc subunits with tags; also called IL-2 receptor βγ heterodimer; Fc-IL-2Rβγ
In general, Kd refers to the equilibrium constant for the complex coming apart. In the test with Proleukin, B1 returned a Kd of 0.052 nM.

With B2, the equilibrium dissociation constant (Kd) came to 80 nM in test [1], 15 nM in test [2] and 2300 nM in test [3].

B3: Fc-IL-2 heterodimer 118.46 (hIL-2v_T3A_C125S), intact N-terminus (Fc fusion)
chain 1: not shown
chain 2: ESKYGPPCPPCPAPEAAGGPSVFLFPPKPKDTLMISRTPEVTCVVVDVSQEDPEVQFNWYVDGVEVHNAKTKPREEQFNSTYRVVSVLTVLHQDWLNGKEYKCKVSNKGLPSSIEKTISKAKGQPREPQVYTLPPSQEEMTKNQVSLSCAVKGFYPSDIAVEWESNGQPENNYKTTPPVLDSDGSFFLVSRLTVDKSRWQEGNVFSCSVMHEALHNRFTQKSLSLSLGK
With B3, the “Treg EC50, STAT5 activation (PBMC STAT5 assay)” value in test [4] is below 0.001 nM. Moreover, the “STAT5 activation of CTLL-2 cells, EC50” value in test [5] amounted to 0.002 nM.
